# Experimental data as given in paper PMC7819943, “Rice protein-binding microarrays: a tool to detect cis-acting elements near promoter regions in rice”.
# The list shows a part of the results.
# Target: T1, OsWOX13 (Oryza sativa, UniProt Q5QMM3 1-267)
# T1 sequence: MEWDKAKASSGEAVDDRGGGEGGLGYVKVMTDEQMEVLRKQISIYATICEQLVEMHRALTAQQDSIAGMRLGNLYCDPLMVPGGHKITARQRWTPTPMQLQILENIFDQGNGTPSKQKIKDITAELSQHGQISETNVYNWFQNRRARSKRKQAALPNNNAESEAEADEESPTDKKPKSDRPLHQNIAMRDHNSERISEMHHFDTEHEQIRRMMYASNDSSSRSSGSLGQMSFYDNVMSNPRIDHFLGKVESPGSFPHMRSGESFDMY
# Assay: protein-binding microarray (RPBM); PBS, 2% BSA, 51.3 ng/ul salmon testes DNA, 50 uM zinc acetate, 200 nM TF, 25 C, 1 h; high values mean tight binding
# Conditions: protein: recombinant; tags: N-terminal polyhistidine and DsRed monomer fusion (pET32a); label: CyDye5-dUTP incorporated in the synthesized complementary strand; 3' TTTTT single-stranded linker to array surface; dsDNA, one strand shown
# Procedure, shortened: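 An Axon 4000B scanner gave the binding signal as per-feature fluorescence intensity in arbitrary units. This followed washing of a custom Agilent array that had been incubated for 1 h at 25 °C with 200 nM protein in PBS, 2% BSA, salmon testes DNA and 50 µM zinc acetate. The proteins were transcription factors fused at the N-terminus to polyhistidine and DsRed, expressed in E. coli BL21-CodonPlus and purified on Ni–NTA.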
row,Sequence,binding signal
1,TCTTTCCTATTTCGGTAATTATTGTTTTGCATTTACTATTCGGAGTCACCTAGTGCAG,4040 fluorescence intensity (a.u.)
2,ACCTTAGATGAGGAATTAATAAATAATCCAAACTGGTCCCCGGAGTCACCTAGTGCAG,9850 fluorescence intensity (a.u.)
3,GGTAGATTGGTACATAATGGCATTTCAACGTGGTATTCTACGGAGTCACCTAGTGCAG,22700 fluorescence intensity (a.u.)
4,GCCTATATTGATAGAGAACTACCAGCACTGGCAGGATGAGCGGAGTCACCTAGTGCAG,18900 fluorescence intensity (a.u.)
5,TCAATTGATTGATCTTCTGCTGCTGCTGCTGCATAGGTTCCGGAGTCACCTAGTGCAG,38400 fluorescence intensity (a.u.)
6,GTGCTCATTTAATTGCTAAGATACACGTTTGCTAGTGCATCGGAGTCACCTAGTGCAG,6850 fluorescence intensity (a.u.)
7,GCTCAAAATTCGATACCAATTAATTCTGTCATACAGGTCGCGGAGTCACCTAGTGCAG,7950 fluorescence intensity (a.u.)
8,CTCTCGTAATCAGTTCAGATTTTCACTTAGATTATGGGAACGGAGTCACCTAGTGCAG,5950 fluorescence intensity (a.u.)
9,GCCTCCAATTTGATTGTTCGCAACATTAAGTACCACCAAGCGGAGTCACCTAGTGCAG,18200 fluorescence intensity (a.u.)
10,TCTTGATTGGTTGTTTTGGTTTGTTTCTTATTTATGTTTGCGGAGTCACCTAGTGCAG,54100 fluorescence intensity (a.u.)
11,TATAGATAGATAGATATAGTTAGTTGCAGCTGGAGACGGACGGAGTCACCTAGTGCAG,19300 fluorescence intensity (a.u.)
12,CAATTAGTCCGTGATTAGCCATAAGTGCTACAGTAACCCACGGAGTCACCTAGTGCAG,8330 fluorescence intensity (a.u.)
13,TTGATTTATAGATACTGTGTTGACAATGGCAGAAACAAGTCGGAGTCACCTAGTGCAG,10200 fluorescence intensity (a.u.)
14,TAGCATTTAATTGGAAGCATATACCATATGAGCAAATACGCGGAGTCACCTAGTGCAG,26800 fluorescence intensity (a.u.)
15,GTTTGATTGTTTTCTAGTGTACTACACTTCCCTAGAACGTCGGAGTCACCTAGTGCAG,55000 fluorescence intensity (a.u.)
16,TTTTGTAATTAGTTGAGTTAGATATCGGCTTTCCATTCTCCGGAGTCACCTAGTGCAG,12700 fluorescence intensity (a.u.)
17,ATTAATTAGCTAGTGCGCCCCTGCCTGCTCATGAGTCATGCGGAGTCACCTAGTGCAG,31200 fluorescence intensity (a.u.)
18,GAGTAAATTGCACACGGATGCAATCAATTGACCTGTGCTGCGGAGTCACCTAGTGCAG,20000 fluorescence intensity (a.u.)
19,CGATTCAACAATCTTAATTCAATTATTACAAACCACGACACGGAGTCACCTAGTGCAG,4590 fluorescence intensity (a.u.)
20,CAAAATTAATGTTATTATACTTTGTTATACAAATGAAATGCGGAGTCACCTAGTGCAG,18700 fluorescence intensity (a.u.)
21,ACTTGATTCCTCCTGATACTCCCCGTTCAATCTTTGTTTACGGAGTCACCTAGTGCAG,4910 fluorescence intensity (a.u.)
22,TCGAGATTTGATTCAAACACGCGGTTAATCCACATTATTTCGGAGTCACCTAGTGCAG,4910 fluorescence intensity (a.u.)
23,CCAGATTGTTAGGTTCTCTCGAATTCACTCAAATAGCACACGGAGTCACCTAGTGCAG,3970 fluorescence intensity (a.u.)
24,AACTGCGCCATGACTAACACTAATTAACTAAACCCTCCATCGGAGTCACCTAGTGCAG,3980 fluorescence intensity (a.u.)
25,GTACGATTCCAATTAAATGACTATATCAGAAAACCCTCTCCGGAGTCACCTAGTGCAG,6210 fluorescence intensity (a.u.)
26,AGAGATCGAGATTGACACACAACGTGGTTCACGCGTGCGCCGGAGTCACCTAGTGCAG,23100 fluorescence intensity (a.u.)
27,AACTTATAATTTAGAGCTCTATCAAACATATCCTACATGTCGGAGTCACCTAGTGCAG,5490 fluorescence intensity (a.u.)

row,Sequence,binding signal
1,CATGGACTGACGGGGATTACATTGATAAGCACTTCGCATACGGAGTCACCTAGTGCAG,8580 fluorescence intensity (a.u.)
2,TATCAGCTAAATTATTTATTTTCAACCAAATTTGATTTTACGGAGTCACCTAGTGCAG,3670 fluorescence intensity (a.u.)
3,CCAATTAACTTTCTCAACACAAAGCAAGCACAAGCCAGCTCGGAGTCACCTAGTGCAG,3230 fluorescence intensity (a.u.)
4,GAGCTTAAATTTACTTGATGTGAATTTAACATTTTGTGTACGGAGTCACCTAGTGCAG,7270 fluorescence intensity (a.u.)
5,TTTTAAATTACCTGTAGTCTGAACTCTTATGTTGACTTTGCGGAGTCACCTAGTGCAG,10500 fluorescence intensity (a.u.)
6,TCTAATTTATTATAACTTAAAATTACTACGATTTAATTGTCGGAGTCACCTAGTGCAG,34500 fluorescence intensity (a.u.)
7,CAAGACAGTTAAATTACACCAGTTTAAATAGTTCGAGGGTCGGAGTCACCTAGTGCAG,10300 fluorescence intensity (a.u.)
8,TTTCGTCCATAGACTGATAATGATTGTGAAACAGAGGAAGCGGAGTCACCTAGTGCAG,8800 fluorescence intensity (a.u.)
9,GGCAACACAGGACAGATTGATGTGGCTTTGGCACCAATCACGGAGTCACCTAGTGCAG,9940 fluorescence intensity (a.u.)
10,TGTTAAATTTACTGGATTTGGGCCGTAGCTTTAATGTGGGCGGAGTCACCTAGTGCAG,18100 fluorescence intensity (a.u.)
11,TTTAATTAATTTGTTAAATTTTCTGATCGGAATGAGCGGTCGGAGTCACCTAGTGCAG,63700 fluorescence intensity (a.u.)
12,AGAGATTGGAGGGTATTATTTGGATTAGTGATGCAAATACCGGAGTCACCTAGTGCAG,12400 fluorescence intensity (a.u.)
13,TGAATGATTGCTTGGTCACATTTATTGAGCGTGAGATGTTCGGAGTCACCTAGTGCAG,39600 fluorescence intensity (a.u.)
14,TGCCATTCATTTATTGATGAAAATGAGTGAAACTTAGACACGGAGTCACCTAGTGCAG,6730 fluorescence intensity (a.u.)
15,GTATTGACAGAACAAATGTAGAACTGGTAGGAGCTTGGCGCGGAGTCACCTAGTGCAG,17300 fluorescence intensity (a.u.)
16,TATCAATGATAATCATGATGATGGAGCATCATATCTACTACGGAGTCACCTAGTGCAG,10000 fluorescence intensity (a.u.)
17,TTATAGTGCCACTCATAATCAATTATTAATCGATTTAAAGCGGAGTCACCTAGTGCAG,3620 fluorescence intensity (a.u.)
18,ACTCACAGCTTAATTACAAATGTAAAATATGTGCATGTTTCGGAGTCACCTAGTGCAG,5380 fluorescence intensity (a.u.)
19,TTATGATTGTAAGGGTTACAGTTCTGTGACTAACCATGTACGGAGTCACCTAGTGCAG,30800 fluorescence intensity (a.u.)
20,TCACCCCTTCTAATTAATTAATATTATGTCATTTTCTAATCGGAGTCACCTAGTGCAG,10500 fluorescence intensity (a.u.)
21,GGTGGCGGGCGGAGGCGGGAGGGAGGTGACATGGATGGTCCGGAGTCACCTAGTGCAG,5580 fluorescence intensity (a.u.)
22,GATCAAATTTACGAAAGTTATCTATCTAGACTCGTTATTTCGGAGTCACCTAGTGCAG,3320 fluorescence intensity (a.u.)
23,CTGATTACTGGATAATCATGTTTTATAGTAAACAAATTGGCGGAGTCACCTAGTGCAG,29400 fluorescence intensity (a.u.)
24,TTGATTGATCTTTGGTTGGATGGATGCTTGATGATGTGCTCGGAGTCACCTAGTGCAG,31900 fluorescence intensity (a.u.)
25,CAAATTGAAGTGCATTATTAGTGCTACCGTGCTAGAAAGACGGAGTCACCTAGTGCAG,4280 fluorescence intensity (a.u.)
26,AAAATAAATAAATAAATTTGGTAACATTGATTAATTAGGACGGAGTCACCTAGTGCAG,21200 fluorescence intensity (a.u.)
27,ATGATGGATTTCCTTAACATGTACAGGAAACATCCGTATACGGAGTCACCTAGTGCAG,5260 fluorescence intensity (a.u.)
